# Reference: article PMC4336329 (PLoS ONE, 2015)
# In all, about 310,000 compounds went through this assay and about 2,200 (0.71%) showed an effect of 50% or more. The effect is printed as a negative number. This is one part of the list.
# Biological target: human ether-à-go-go-related gene (hERG) potassium channel (human, UniProt Q12809)
# Test: primary screen, population patch clamp on CHO cells stably expressing hERG
# human ether-à-go-go-related gene (hERG) potassium channel, sequence (Q12809 whole entry, looked up): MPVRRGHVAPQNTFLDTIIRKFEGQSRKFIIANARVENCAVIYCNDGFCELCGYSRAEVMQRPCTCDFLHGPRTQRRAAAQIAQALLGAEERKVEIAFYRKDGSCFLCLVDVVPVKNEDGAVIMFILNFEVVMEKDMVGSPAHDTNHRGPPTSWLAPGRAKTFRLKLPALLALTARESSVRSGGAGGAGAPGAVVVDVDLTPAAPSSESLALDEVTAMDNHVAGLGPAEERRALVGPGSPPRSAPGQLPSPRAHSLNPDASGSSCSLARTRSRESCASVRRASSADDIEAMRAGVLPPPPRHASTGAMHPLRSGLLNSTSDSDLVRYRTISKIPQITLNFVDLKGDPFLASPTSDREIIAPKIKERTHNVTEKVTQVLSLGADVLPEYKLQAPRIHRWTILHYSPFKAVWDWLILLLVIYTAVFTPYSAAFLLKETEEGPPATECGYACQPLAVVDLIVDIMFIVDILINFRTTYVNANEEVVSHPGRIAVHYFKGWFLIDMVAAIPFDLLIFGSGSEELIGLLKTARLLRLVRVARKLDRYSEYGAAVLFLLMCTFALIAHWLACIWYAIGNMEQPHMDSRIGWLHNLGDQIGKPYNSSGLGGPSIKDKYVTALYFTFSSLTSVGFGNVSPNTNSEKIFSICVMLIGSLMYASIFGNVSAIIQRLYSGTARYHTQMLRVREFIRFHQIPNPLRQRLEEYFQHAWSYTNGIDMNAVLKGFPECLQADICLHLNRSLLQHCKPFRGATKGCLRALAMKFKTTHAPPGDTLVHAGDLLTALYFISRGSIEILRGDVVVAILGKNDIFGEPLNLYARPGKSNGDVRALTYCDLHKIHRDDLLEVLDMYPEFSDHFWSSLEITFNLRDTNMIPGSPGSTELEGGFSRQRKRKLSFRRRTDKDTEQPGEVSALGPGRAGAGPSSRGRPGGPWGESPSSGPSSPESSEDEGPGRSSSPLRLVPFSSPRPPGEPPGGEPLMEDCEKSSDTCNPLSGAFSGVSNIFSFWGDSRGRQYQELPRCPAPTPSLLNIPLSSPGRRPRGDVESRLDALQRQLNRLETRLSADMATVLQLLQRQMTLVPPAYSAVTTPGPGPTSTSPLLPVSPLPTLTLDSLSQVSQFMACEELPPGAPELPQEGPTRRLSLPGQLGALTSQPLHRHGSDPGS
row,SMILES,"hERG current change (%, negative = inhibition) at 1uM"
1,Nc1c(C(=O)c2ccccc2)sc2nsc(SCCN3CCCC3)c12,10%
2,CN(C)c1ccc(CNc2ccc3c(c2)ncn3C(C)(C)C)cc1,10.3%
3,COc1ccc(NC(=O)CCCn2nc(C)c3c(C)n(-c4ccccc4)nc3c2=O)cc1OC,12.8%
4,CC1CC(C)CN(CCCNC(=O)c2c(O)nc3ccccn3c2=O)C1 (centres unmarked),13.8%
5,COC(=O)c1c(C(=O)NCc2ccccc2)ncn1CC(O)COc1ccccc1 (centres unmarked),5.97%
6,COc1ccc(CCNC(=O)Cn2nnc(-c3ccc(N4CCOCC4)cc3)n2)cc1OC,3.01%
7,COCCNC(=O)C(c1ccc(C)o1)N(Cc1ccc(F)cc1)C(=O)Cn1nnc2ccccc21 (centres unmarked),1.57%
8,COc1ccc(CCNC(=O)Cc2cccs2)cc1OC,25.5%
9,COc1ccc(C(CCN2CCCC(C)C2)c2c(OC)cc(OC)c3c2OC(=O)CC3c2cc(OC)c(OC)c(OC)c2)cc1 (centres unmarked),11.9%
10,Cc1ccc(OCC(=O)N2CCCC(N3CCN(c4ccc(F)cc4)CC3)C2)cc1 (centres unmarked),-90.2%
11,Cc1ccc(-c2nnc(CCC(=O)N(C)Cc3nccs3)o2)s1,5.2%
12,CCCN(CC(=O)Nc1ccc(F)c(F)c1F)C(=O)c1ccc(N2CCCC2=O)cc1,12.5%
13,CCCCn1c(=O)c(CCC(=O)OCC(=O)Nc2cccc3ccccc23)nc2ccccc21,17.2%
14,O=C(Nc1cnc2sccn2c1=O)c1ccc(Cl)cc1Cl,16.9%
15,CC(C)c1c(C(=O)N/N=C/c2ccncc2)nnn1-c1nonc1N,-5.28%
16,O=C(C[n+]1ccccc1)N/N=C/c1ccccc1F.[Cl-],8.59%
17,Cc1nnc(SCC(=O)N2CCN(c3ccccc3)CC2)n(N)c1=O,10.7%
18,CCOCCn1c(CN(Cc2ccccc2)Cc2ccccc2)nc2c1c(=O)n(C)c(=O)n2C,4.46%
19,Cc1nc2nc(C)c(CCC(=O)NCCC3=CCCCC3)c(C)n2n1,11.6%
20,O=C(Oc1ccccc1N1C(=O)C2CCCCC2C1=O)c1ccccc1 (centres unmarked),23.6%
21,O=C(NCC1CCCO1)c1cc2ccccc2nc1Cl (centres unmarked),12.5%
22,CN1CCN(Cc2cccc3ncccc23)CC1CCO (centres unmarked),13.5%

row,SMILES,"hERG current change (%, negative = inhibition) at 1uM"
1,Cc1cccc(-n2c(-c3csc(C)c3)n[nH]c2=S)c1,11.8%
2,Cc1cc(NC(=O)C2C3C(=O)N(Cc4ccc(Cl)cc4)C(C(=O)NC4CCCCC4)C34C=CC2(C)O4)no1 (centres unmarked),15.3%
3,C=C(C)CSc1nnc(-c2cccc(S(=O)(=O)N(C)C)c2)n1-c1cc(OC)ccc1OC,5.1%
4,CCCn1c(SCC(=O)Nc2ccc(S(=O)(=O)N(C)C)cc2)n[nH]c1=O,7.4%
5,Cc1cccc(C)c1OCC(=O)NC1CC1,14%
6,CCOC(=O)c1ccc(OS(=O)(=O)c2ccccc2)c(OC)c1,11.4%
7,COC(=O)Cc1ccc(NC(=S)N2CCCCC2C)cc1 (centres unmarked),0.705%
8,CC(C(=O)N1CCOCCOCCOCC1)N1C(=O)c2ccccc2C1=O (centres unmarked),10.9%
9,CN(CC(=O)Nc1ccccc1C(F)(F)F)C(=O)C1CC1,14.5%
10,O=C(COC(=O)/C=C/c1ccc(F)cc1)Nc1ccc(Cl)cn1,19.6%
11,O=C(NC12CC3CC(CC(C3)C1)C2)c1ccc([N+](=O)[O-])cc1,11.1%
12,COc1cc(C(C)=O)ccc1OC(=O)N(C)c1ccccc1,6.73%
13,COCCCNC(=O)CCC(=O)Nc1ccc2nc(N3CCOCC3)cc(C)c2c1,7.15%
14,CC(=O)Nc1ccc(NC(=O)COC(=O)CCc2nc3ccccc3s2)cc1,7.01%
15,Cc1cc(C)c(S(=O)(=O)NCC2CCC(C(=O)N3CCC4(CC3)OCCO4)CC2)c(C)c1 (centres unmarked),-8.34%
16,Nc1nc(CN2CCN(c3ccccc3)CC2)nc(Nc2ccc(Cl)cc2)n1,-44.8%
17,Nc1cc(N)nc(SCC(=O)NC(=O)NC2CCCC2)n1,6.37%
18,Cc1nnc(SCC(=O)N2CCc3ccccc32)n1-c1ccccc1,21%
19,O=S(=O)(NCC(c1cccnc1)N1CCN(c2ccc(F)cc2)CC1)c1cccs1 (centres unmarked),-22.3%
20,CC(C)(CNC(=O)c1cc(-c2ccc(Cl)s2)nc2ccccc12)N1CCOCC1,-11.6%
21,CCC(C)(C)NC(=O)C(c1ccccc1)N(C(=O)c1csnn1)C1CC1 (centres unmarked),13.5%
22,COCCNC(=S)N(CCc1c(C)[nH]c2ccc(Cl)cc12)Cc1cccnc1,-3.35%

row,SMILES,"hERG current change (%, negative = inhibition) at 1uM"
1,CCOc1ccc(CCNC(=O)CS(=O)(=O)Cc2nc(-c3ccc(OC)cc3)oc2C)cc1,-0.117%
2,CC(=O)Nc1ccc(S(=O)(=O)/N=C2\SCCN2S(=O)(=O)c2ccc(NC(C)=O)cc2)cc1,8.99%
3,COc1ccc(Nc2nnc(-c3ccccc3)c3ccccc23)cc1C(=O)N1CCCCC1,-14.8%
4,Cc1ccc(/C=C/S(=O)(=O)NCc2ccc(F)cc2)cc1,16%
5,COc1ccc(N2CCN(c3ncnc4c3cnn4-c3ccc(C)cc3C)CC2)cc1,13.6%
6,C[C@H](NC(=O)Cc1cccc2ccccc12)C(=O)N1CCCN(C)CC1,10%
7,CCOC(=O)C1CCN(C(=O)C2CCN(c3ncnc4c3nc3n4CCCCC3)CC2)CC1,16%
8,COC(=O)c1ccc(COc2ccccc2/C=C(\C#N)C(=O)Nc2c(C)cccc2C)cc1,10.3%
9,O=C1S/C(=C\c2cccs2)C(=O)N1c1ccc(O)cc1,16.1%
10,CCOc1cc(C2C(C#N)=C(N)OC3CCCC(=O)C32)ccc1OCCN1CCOCC1 (centres unmarked),8.53%
11,CC(C)CNC(=S)Nc1ccccc1F,11.4%
12,O=C(Cn1c(CO)nc2ccccc21)Nc1ccccc1Cl,3.41%
13,CC1CN(CCOc2ccccc2-c2ccccc2)CC(C)O1.O=C(O)C(=O)O (centres unmarked),6.68%
14,Cc1cnc(C(=O)N2CCCC(C(=O)c3cccc(OC(C)C)c3)C2)cn1 (centres unmarked),3.22%
15,O=C(c1cccc2ccccc12)N1CCN(c2ccc([N+](=O)[O-])c(NCc3ccco3)c2)CC1,14.5%
16,Cc1ccc(C(=O)Oc2cc(C)n(C)c(=O)c2)cc1,5.86%
17,O=C(COC(=O)c1c[nH]c2ccccc12)Nc1ccc(F)cc1,-1.51%
18,CC1=CCC2C(=O)N(C(C)c3ccccc3)C(=O)C2C1 (centres unmarked),7.02%
19,COc1ccc(C(=S)N2CCC(C(N)=O)CC2)cc1Br,13.2%
20,COC(=O)c1cc2oc(C)cc2n1CC(=O)N(C)c1ccccc1,16.7%
21,O=C(Nc1nc(-c2cccc([N+](=O)[O-])c2)cs1)c1cccc([N+](=O)[O-])c1C(=O)O,12.5%
22,CN(C)S(=O)(=O)c1cccc(C(=O)Nc2cccnc2)c1,4.03%

row,SMILES,"hERG current change (%, negative = inhibition) at 1uM"
1,O=C(N=C1c2ccccc2CN1c1ccc(F)cc1)c1ccc(Cl)nc1,3.7%
2,COc1ccc(/C=N/NC(=O)CCc2nc3ccccc3[nH]2)cc1,4.33%
3,CCOCCCNC(=O)c1ccc(OC2CCN(C(C)=O)CC2)c(OC)c1,16.4%
4,O=C1Nc2c(c(=O)[nH]c(=O)n2-c2ccccc2)C(C(F)(F)F)(C(F)(F)F)N1,-1.46%
5,CCOc1ccc(N2CC(C(=O)N3CCCCC3)CC2=O)cc1 (centres unmarked),19.4%
6,c1ccc(-c2ccc(-c3nc(-c4ccncc4)no3)cc2)cc1,9.01%
7,Cc1cccc(CN2C(=O)c3ccccc3Sc3ccc(C(=O)NCCN4CCOCC4)cc32)c1,1.75%
8,C/C(=C\c1cccs1)C(=O)c1c(C)cc(C)[nH]c1=O,10.3%
9,Cc1ccc(CNC(=O)Cn2ccc3cc(S(=O)(=O)N4CCCC4)ccc32)o1,19.8%
10,CCOc1cc(C(=O)NCc2ccc(C)cc2)ccc1OCC(=O)N1CCOCC1,8.35%
11,CCOC(=O)c1c(NC(=O)/C=C/C(=O)O)sc(C)c1-c1ccc(C)c(C)c1,19.9%
12,COc1ccc(CN(C)C(=O)c2ccc(Oc3ccccc3)cc2)cc1F,9%
13,COC(=O)c1cc(=O)n(Cc2ccc(F)cc2)c(=NCc2ccc(F)cc2)s1,14.1%
14,Cc1ccc(N(CC(=O)NC2CCCCC2)C(=O)CNC(=O)c2ccco2)cc1C,2.81%
15,Cc1cccc(NC(=O)N(Cc2nc3ccccc3c(=O)[nH]2)C2CCCC2)c1,11.7%
16,CC1(C)CC(=O)C(CC2=C(N)CC(C)(C)CC2=O)=C(N)C1,13.2%
17,O=C(CSc1nnc(-c2ccccc2O)n1Cc1ccccc1)NNC(=O)c1ccccc1O,7.15%
18,CCCN=C1NC(=O)C(CC(=O)NCCc2ccccc2)S1 (centres unmarked),5.76%
19,Cc1ccc2c(C(=O)CN3CCCCC3)c(C)[nH]c2c1,6.49%
20,CCOC(=O)N1CCC(N2Cc3cccc(C(=O)NCc4ccc(C)cc4)c3C2=O)CC1,-18.8%
